Tested on: T. brucei
Type: cell-based, Trypanosoma brucei brucei
Method: 100 nL per well from master plates were stamped in final assay black, clear-bottom 384-well Greiner microplates, including controls of 0% response (DMSO) and 100% response (2 μM Pentamidine): the final assay concentration was 20 μM. Plates containing DMSO were included randomly in the assay, to assess quality through all process. […] After 18 hours incubation, plates were centrifuged in a centrifuge (Beckman Coulter) for 5 min at 500 g, to sediment the cells, supernatant was aspirated with a Cybio-Well dispenser (Cybio), and 40 μL/well of fresh prewarmed HMI-9 were added: this cycle was performed three times. After the last cycle, 10 μL/well of cells suspension were aspirated by Cybio-Well equipment and dispensed over 40 μL of fresh prewarmed HMI-9 in “recovery plates”: calculated maximal residual concentration was 32 nM. […] Assay […] quality was determined by Z' score and validated data set were analyzed with ActivityBase software. As previous described percentage of inhibition was calculate for each concentration based on controls. A 4-parameter equation was used to fit the dose-response curves and pEC50 determination. The potential effect of residual drug remaining after washes was evaluated by performing the same protocol with standard trypanocidal drugs (such as suramin and diminazene) and negligible effect was observed. […] Dose-response assays were performed as above, but, after 18 hours of incubation, drugs were washed from the cell cultures. The resazurin cell viability assay was performed 72 h after drug removal to determine the extent to which the cells were able to resume replication and growth.

SMILES: OCCn1c(CNCCCNc2nc3ccccc3[nH]2)cc2c(Cl)cc(Cl)cc21 [NEU-0001053]
- Cidal?: Y (“Cidal” is defined as pEC99≥6 in the reversibility experiments.)

Reference: article PMC4207660, “Identification and Characterization of Hundreds of Potent and Selective Inhibitors of Trypanosoma brucei Growth from a Kinase-Targeted Library Screening Campaign” (PLoS Neglected Tropical Diseases, 2014)
